Source: PubChem BioAssay AID463173 (ICCB-Longwood Screening Facility, Harvard Medical School, 2010)
The campaign covered roughly 52,000 compounds. About 1,700 (3.3%) were called active. Rule as the data show it: active = survival mostly below about 52% (no sharp cut-off); inactive = mostly above about 56%. Some of the results follow.

These compounds were tested on Wild type (assay: S. aureus survival, RN4220 and DeltatarO strains – OD600, teichoic acid synthesis inhibitors, primary screen (AID 463173)). Settings: S. aureus RN4220 wild type/DeltatarO growth, OD600, 18 h, hits give low values, screened at 18.75 µg/mL (by protocol).

SMILES	survival
CCCN(C(=O)CCc1nc(-c2ccc(OC)cc2)no1)c1ccccc1F	active: 0%
COc1cccc2cc(-c3nnc(Nc4c(F)cccc4F)s3)c(=O)oc12	inactive: 66%
COc1ccc(CN2CCC(C(=O)NC3CCCC3)CC2)cc1	inactive: 84%
Cc1ccc(NC(=O)CN(C)S(=O)(=O)c2ccc3[nH]c4c(c3c2)CCCC4)c(Cl)c1	inactive: 78%
COc1ccc(CC(=O)NCCc2csc3nc(-c4ccccc4F)nn23)cc1	inactive: 55%
COc1ccc(N2CCN(c3oc(-c4ccc(COc5cccc(C)c5)o4)nc3C#N)CC2)cc1	inactive: 124%
COc1ccccc1C(=O)Nc1ccc(OCc2cc(=O)n3ccsc3n2)cc1	inactive: 88%
O=C(CSc1nc2c([nH]c3ccccc32)c(=O)n1-c1ccccc1)Nc1ccc2c(c1)OCCO2	inactive: 87%
COc1ccc(NC(=O)Cn2ncc3c2-c2ccccc2OC3)cc1Cl	inactive: 67%
Cc1cccc(NC(=O)c2sc3nc(N4CCOCC4)c4c(c3c2N)CC(C)(C)OC4)c1	inactive: 71%
CC1=C(C(=O)Nc2ccc(C)cc2Cl)C2(CCCCCC2)OC1=O	inactive: 113%
CC(=O)N1c2ccc(S(=O)(=O)NCCC(=O)Nc3ccc(Br)c(C)c3)cc2CC1C (stereo not drawn)	inactive: 85%
CCC(=O)c1cc2c(cc1NC(=O)c1ccccc1F)OCCO2	inactive: 81%
CCN(CC)c1sc(S(=O)(=O)c2ccccc2)nc1S(=O)(=O)c1ccc(C)cc1	inactive: 80%
CCOc1ccc(CCNC(=O)c2ccc(-n3c(C)cc4c3CCC(C)C4)cc2)cc1OCC (stereo not drawn)	inactive: 84%
CCN(CCCNC(=O)c1cc2c(Cl)nc3ccccc3c2s1)Cc1ccccc1	inactive: 96%
Cc1ccc(C)c2sc(N3CCN(C(=O)C(C)(C)C)CC3)nc12	inactive: 85%
CC(=O)OC(COCc1ccccc1)Cn1cnc2ccccc21 (stereo not drawn)	inactive: 119%
COc1ccc(N2CC(NC(=O)c3ccc(S(=O)(=O)N4CCOCC4)cc3)CC2=O)cc1OC (stereo not drawn)	inactive: 73%
CCN(CC)CCNC(=O)Nc1ccc2c(c1)N(Cc1ccccc1)C(=O)c1ccccc1S2	inactive: 106%

SMILES	survival
CCOC(=O)c1cn(CC2CC2)c2cc(F)c(F)cc2c1=O	inactive: 93%
CC(C)(C)c1ccc(-c2nc(SCC(=O)Nc3ccc(Cl)cc3)[nH]c(=O)c2C#N)cc1	inactive: 25%
CC(=O)NCCn1c(SCC(=O)Nc2ccc(C)cc2)nc2ccccc2c1=O	inactive: 73%
CCCCNC(=O)C1CCC(CNS(=O)(=O)c2ccc(Cl)cc2)CC1 (stereo not drawn)	inactive: 119%
CCc1ccc(S(=O)(=O)N(C(=O)Oc2ccccc2)c2ccc3oc(C)c(C(=O)OC)c3c2)cc1	inactive: 89%
CCCCn1c(SCC(=O)NCc2ccco2)nc2ccccc2c1=O	inactive: 107%
CCCCOc1cccc(C(=O)N(Cc2cccs2)c2ccc(OC)cc2)c1	inactive: 83%
Cc1c(-c2ccc(Cl)cc2)c(=O)oc2ccc(OC(=O)N3CCOCC3)cc12	inactive: 68%
COc1cccc(-n2c(-c3cccc(F)c3)nc3c(cnn3-c3ccc(C)cc3)c2=O)c1	inactive: 87%
COCCn1nnnc1C(c1cc2c(C)ccc(C)c2[nH]c1=O)N1CCCc2ccccc21 (stereo not drawn)	inactive: 105%
Cc1ccc(Cl)cc1-n1ncc2c(N3CCCCCC3)ncnc21	inactive: 120%
CCCCN(CCCC)C(=O)C1CCN(S(=O)(=O)c2cccc3nsnc23)CC1	inactive: 129%
CCN(Cc1ccccc1)c1ncnc2c1nnn2C	inactive: 65%
O=S(=O)(NCc1ccc(Cl)cc1)c1ccc(-c2cnc(C3CC3)o2)cc1	inactive: 77%
COc1ccc(OC)c(/C=C/C(=O)Nc2ccc(C(=O)OCCC(C)C)cc2)c1	inactive: 42%
Cc1ccccc1CN1C(=O)c2ccccc2Sc2ccc(C(=O)NC3CCCC3)cc21	inactive: 75%
COc1ccccc1CNC(=O)CC(c1ccc(OC)c(OC)c1)N1Cc2ccccc2C1=O (stereo not drawn)	inactive: 84%
CCc1cnc2c(c1SCC(=O)c1ccc(OC)cc1)c(=O)n(C)c(=O)n2C	inactive: 75%
O=C(NCc1ccc(F)cc1)c1cc(-c2ccc(Cl)cc2)n[nH]1	inactive: 94%
O=C(Nc1cccnc1)c1cc(-c2cccc(Cl)c2)on1	inactive: 141%

SMILES	survival
O=C(O)c1cccc(Nc2ncnc3scc(-c4ccccc4)c23)c1	inactive: 64%
CCc1ccc(S(=O)(=O)c2nnn3c2nc(Nc2ccc(F)cc2)c2cc(Cl)ccc23)cc1	inactive: 94%
CCC(C)NC(=O)CCSc1nc(-c2ccc(OC)cc2)cc(C(F)(F)F)n1 (stereo not drawn)	inactive: 127%
CN(C)c1ccc(-c2nc3ccccc3s2)cc1	inactive: 114%
COc1ccc(NC(=O)c2cc(CN3CCCC3)on2)cc1Cl	inactive: 72%
N=c1n(CCN2CCCCC2)c2ccccc2n1CC(=O)c1ccc(Br)s1	inactive: 104%
CC(C)N(Cc1ccc(C(=O)O)o1)C(C)C	inactive: 112%
Cc1ccccc1C(=O)Oc1c(Sc2ccccc2)c(C)nn1C(C)(C)C	inactive: 50%
Cc1ccc(C(=O)Nc2nnc(S(=O)(=O)N3CCc4ccccc43)s2)cc1	inactive: 33%
CN1C(=O)/C(=C/C=C2/CCCN2C)N(C)C1=S	inactive: 109%
COc1ccc(CC(=O)NCc2ccc3c(c2)CCN3C(=O)c2ccc(Cl)cc2)cc1	inactive: 83%
CCc1ccc2oc(-c3cc(NC(=O)c4cccnc4)cc(C)c3O)nc2c1	inactive: 87%
COc1ccc(CCNC(=O)Cn2ncc3c(=O)oc4ccccc4c32)c(OC)c1	inactive: 76%
CCOc1ccc(NC(=O)c2oc3ccccc3c2NC(=O)c2cc(C)cc(C)c2)cc1	inactive: 70%
CCOc1ccc(NC(=O)c2cnc(Nc3ccccc3OC)c3ccccc23)cc1	inactive: 68%
CC(C)Oc1ccc(CNC(=O)c2cccc(NC(=O)N3CCSc4ncccc43)c2)cc1	inactive: 79%
Cc1cccc(Cc2c(C)nc3nc(SCC(=O)NCc4ccccc4)nn3c2C)c1	inactive: 71%
CCOC(=O)CSc1nc2sc3c(c2c(=O)n1-c1ccccc1)CCC(C(C)(C)C)C3 (stereo not drawn)	inactive: 70%
